Data from the supplement of paper PMC10369915.
Some of the results follow. No stated cut-off is given here; in the data, active = 3.2 or more and inactive = the rest. The signal is at background level for most entries.

How the values were obtained:
Assay in all cases: enrichment score (SH2-bound / input frequency) (ratio); bacterial display of known human phosphotyrosine sites (pTyr-Var adds point mutants) read by sequencing; higher = stronger binding; tyrosines were phosphorylated by kinases first
Details in all cases: peptide library: pTyr-Var
SHP2 C-SH2 domain E139D = target: SHP2 C-SH2 domain E139D
[1] = target: SHP2 C-SH2 domain wild-type
SHP2 N-SH2 domain L43F = target: SHP2 N-SH2 domain L43F
SHP2 N-SH2 domain T42A = target: SHP2 N-SH2 domain T42A
SHP2 N-SH2 domain T52S = target: SHP2 N-SH2 domain T52S
[2] = target: SHP2 N-SH2 domain wild-type
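Further: displayed peptides selected on beads carrying the immobilized SH2 domain, with library peptides lacking any tyrosine serving as negative controls.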

MGCVNYGAYIN [GLB1_Y485_R482C]
enrichment score (SHP2 C-SH2 domain E139D): inactive: 0.909
enrichment score [1]: inactive: 1.01
enrichment score (SHP2 N-SH2 domain L43F): inactive: 1.04
enrichment score (SHP2 N-SH2 domain T42A): inactive: 0.885
enrichment score (SHP2 N-SH2 domain T52S): inactive: 0.896
enrichment score [2]: inactive: 1.44

TLPAFYMENFS [GLB1_Y552_G554E]
enrichment score (SHP2 C-SH2 domain E139D): inactive: 0.93
enrichment score [1]: inactive: 1.16
enrichment score (SHP2 N-SH2 domain L43F): inactive: 1.22
enrichment score (SHP2 N-SH2 domain T42A): inactive: 0.93
enrichment score (SHP2 N-SH2 domain T52S): inactive: 0.958
enrichment score [2]: inactive: 1.19

TLPAFYMGNFS [GLB1_Y552]
enrichment score (SHP2 C-SH2 domain E139D): inactive: 1.38
enrichment score [1]: inactive: 1.04
enrichment score (SHP2 N-SH2 domain L43F): inactive: 1.14
enrichment score (SHP2 N-SH2 domain T42A): inactive: 1.4
enrichment score (SHP2 N-SH2 domain T52S): inactive: 1.37
enrichment score [2]: inactive: 1.05

KFWREYILSLE [GPC3_Y299_YF]
enrichment score (SHP2 C-SH2 domain E139D): active: 3.79
enrichment score [1]: active: 3.62
enrichment score (SHP2 N-SH2 domain L43F): active: 3.93
enrichment score (SHP2 N-SH2 domain T42A): inactive: 2.89
enrichment score (SHP2 N-SH2 domain T52S): active: 3.69
enrichment score [2]: active: 3.72

SQSPHYFRSGQ [GPATCH8_Y1038_R1043Q]
enrichment score (SHP2 C-SH2 domain E139D): inactive: 0.68
enrichment score [1]: inactive: 0.573
enrichment score (SHP2 N-SH2 domain L43F): inactive: 0.496
enrichment score (SHP2 N-SH2 domain T42A): inactive: 0.754
enrichment score (SHP2 N-SH2 domain T52S): inactive: 0.625
enrichment score [2]: inactive: 0.723

VASSLYDIFAR [GLB1_Y294_L297F]
enrichment score (SHP2 C-SH2 domain E139D): inactive: 1.57
enrichment score [1]: inactive: 1.41
enrichment score (SHP2 N-SH2 domain L43F): inactive: 1.46
enrichment score (SHP2 N-SH2 domain T42A): inactive: 1.19
enrichment score (SHP2 N-SH2 domain T52S): inactive: 1.34
enrichment score [2]: inactive: 1.44

EVLKNYNQQKD [GOLGA4_Y1551]
enrichment score (SHP2 C-SH2 domain E139D): inactive: 0.728
enrichment score [1]: inactive: 1.08
enrichment score (SHP2 N-SH2 domain L43F): inactive: 0.835
enrichment score (SHP2 N-SH2 domain T42A): inactive: 0.731
enrichment score (SHP2 N-SH2 domain T52S): inactive: 1.09
enrichment score [2]: inactive: 0.876

EVLKNYSQQKD [GOLGA4_Y1551_N1552S]
enrichment score (SHP2 C-SH2 domain E139D): inactive: 0.73
enrichment score [1]: inactive: 0.595
enrichment score (SHP2 N-SH2 domain L43F): inactive: 0.673
enrichment score (SHP2 N-SH2 domain T42A): inactive: 0.57
enrichment score (SHP2 N-SH2 domain T52S): inactive: 0.705
enrichment score [2]: inactive: 0.776

GPKSTYISSAA [GOLGA5_Y62]
enrichment score (SHP2 C-SH2 domain E139D): inactive: 0.508
enrichment score [1]: inactive: 0.506
enrichment score (SHP2 N-SH2 domain L43F): inactive: 0.562
enrichment score (SHP2 N-SH2 domain T42A): inactive: 0.429
enrichment score (SHP2 N-SH2 domain T52S): inactive: 0.468
enrichment score [2]: inactive: 0.511

QEKKGYFEDRR [GLUL_Y336]
enrichment score (SHP2 C-SH2 domain E139D): inactive: 0.64
enrichment score [1]: inactive: 0.532
enrichment score (SHP2 N-SH2 domain L43F): inactive: 0.629
enrichment score (SHP2 N-SH2 domain T42A): inactive: 0.856
enrichment score (SHP2 N-SH2 domain T52S): inactive: 0.561
enrichment score [2]: inactive: 0.865

VNYGAYINDFK [GLB1_Y488]
enrichment score (SHP2 C-SH2 domain E139D): inactive: 1.27
enrichment score [1]: inactive: 1.37
enrichment score (SHP2 N-SH2 domain L43F): inactive: 1.29
enrichment score (SHP2 N-SH2 domain T42A): inactive: 2.16
enrichment score (SHP2 N-SH2 domain T52S): inactive: 1.13
enrichment score [2]: inactive: 1.49

GKVADYIPQLA [GLS_Y249]
enrichment score (SHP2 C-SH2 domain E139D): inactive: 0.937
enrichment score [1]: inactive: 0.9
enrichment score (SHP2 N-SH2 domain L43F): inactive: 0.775
enrichment score (SHP2 N-SH2 domain T42A): inactive: 0.605
enrichment score (SHP2 N-SH2 domain T52S): inactive: 0.834
enrichment score [2]: inactive: 0.567

IIWDSYTTNKM [GNB4_Y85]
enrichment score (SHP2 C-SH2 domain E139D): inactive: 1.35
enrichment score [1]: inactive: 0.906
enrichment score (SHP2 N-SH2 domain L43F): inactive: 0.881
enrichment score (SHP2 N-SH2 domain T42A): inactive: 1.2
enrichment score (SHP2 N-SH2 domain T52S): inactive: 1.08
enrichment score [2]: inactive: 1.12

YSGLAYTMERS [GLUD1_Y512_H507Y]
enrichment score (SHP2 C-SH2 domain E139D): inactive: 0.952
enrichment score [1]: inactive: 1.18
enrichment score (SHP2 N-SH2 domain L43F): inactive: 0.716
enrichment score (SHP2 N-SH2 domain T42A): inactive: 0.671
enrichment score (SHP2 N-SH2 domain T52S): inactive: 0.82
enrichment score [2]: inactive: 0.792

GPKSTYISSAG [GOLGA5_Y62_A67G]
enrichment score (SHP2 C-SH2 domain E139D): inactive: 0.624
enrichment score [1]: inactive: 0.595
enrichment score (SHP2 N-SH2 domain L43F): inactive: 0.621
enrichment score (SHP2 N-SH2 domain T42A): inactive: 0.562
enrichment score (SHP2 N-SH2 domain T52S): inactive: 0.709
enrichment score [2]: inactive: 0.487

VNYGAYINDFN [GLB1_Y488_K493N]
enrichment score (SHP2 C-SH2 domain E139D): inactive: 1.26
enrichment score [1]: inactive: 1.08
enrichment score (SHP2 N-SH2 domain L43F): inactive: 1.42
enrichment score (SHP2 N-SH2 domain T42A): inactive: 2.64
enrichment score (SHP2 N-SH2 domain T52S): inactive: 1.14
enrichment score [2]: inactive: 1.33

IIWDSYTTNEM [GNB4_Y85_K89E]
enrichment score (SHP2 C-SH2 domain E139D): inactive: 1.33
enrichment score [1]: inactive: 1.31
enrichment score (SHP2 N-SH2 domain L43F): inactive: 1.19
enrichment score (SHP2 N-SH2 domain T42A): inactive: 1.16
enrichment score (SHP2 N-SH2 domain T52S): inactive: 1.25
enrichment score [2]: inactive: 1.33

VNFGAYINDFK [GLB1_Y488_YF]
enrichment score (SHP2 C-SH2 domain E139D): inactive: 0.729
enrichment score [1]: inactive: 0.79
enrichment score (SHP2 N-SH2 domain L43F): inactive: 0.493
enrichment score (SHP2 N-SH2 domain T42A): inactive: 0.534
enrichment score (SHP2 N-SH2 domain T52S): inactive: 0.516
enrichment score [2]: inactive: 0.733
